# Source: the supplement of paper PMC8728848
# The other results are listed elsewhere or left out.
# B1: Langerin K313I (Homo sapiens), Q9UJ71 (protein)
# chain: STLNAQIPELKSDLEKASALNTKIRALQGSLENMSKLLKRQNDILQVVSQGWKYFKGNFYYFSLIPKTWYSAEQFCVSRNSHLTSVTSESEQEFLYKTAGGLIYWIGLTKAGMEGDWSWVDDTPFNKVQSARFWIPGEPNNAGNNEHCGNIKAPSLQAWNDAPCDITFLFICKRPYVPSEP
# How the values were obtained:
# Assay in all cases: glycan array binding signal (z-score within array); higher = stronger binding
# Conditions in all cases: glycan notation: IUPAC condensed, linker removed
# [1] = target: GlcNAc(b1-2)Gal(b1-3)GalNAc
# Procedure, shortened: (§1)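 Glycan array data were curated from 3228 arrays in the Consortium for Functional Glycomics database and kept only where the protein sequence was available. Glycan names were converted to IUPAC-condensed notation, and columns mapping to the same glycan were averaged. The binding signal is a within-array Z-score, averaged across arrays of the same protein sequence at different concentrations or buffers and across linkers. Negative Z-scores can be read as non-binding.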
# [2] = target: GlcNAc(b1-2)Man(a1-3)[GlcNAc(b1-2)Man(a1-6)]Man(b1-4)GlcNAc(b1-4)GlcNAc
# Procedure, shortened: as §1
# [3] = target: GlcNAc(b1-2)Man(a1-3)[GlcNAc(b1-2)Man(a1-6)]Man(b1-4)GlcNAc(b1-4)[Fuc(a1-6)]GlcNAc
# Procedure, shortened: as §1
# [4] = target: GlcNAc(b1-2)Man(a1-3)[GlcNAc(b1-4)][GlcNAc(b1-2)Man(a1-6)]Man(b1-4)GlcNAc(b1-4)GlcNAc
# Procedure, shortened: as §1
# [5] = target: GlcNAc(b1-2)Man(a1-3)[GlcNAc(b1-4)][GlcNAc(b1-2)Man(a1-6)]Man(b1-4)GlcNAc(b1-4)[Fuc(a1-6)]GlcNAc
# Procedure, shortened: as §1
# [6] = target: GlcNAc(b1-2)[GlcNAc(b1-4)]Man(a1-3)[GlcNAc(b1-2)Man(a1-6)]Man(b1-4)GlcNAc(b1-4)GlcNAc
# Procedure, shortened: as §1
# [7] = target: GlcNAc(b1-2)[GlcNAc(b1-4)]Man(a1-3)[GlcNAc(b1-4)][GlcNAc(b1-2)Man(a1-6)]Man(b1-4)GlcNAc(b1-4)GlcNAc
# Procedure, shortened: as §1
# [8] = target: GlcNAc(b1-2)[GlcNAc(b1-4)]Man(a1-3)[GlcNAc(b1-4)][GlcNAc(b1-2)[GlcNAc(b1-6)]Man(a1-6)]Man(b1-4)GlcNAc(b1-4)GlcNAc
# Procedure, shortened: as §1
# [9] = target: GlcNAc(b1-2)[GlcNAc(b1-4)]Man(a1-3)[GlcNAc(b1-4)][GlcNAc(b1-2)[GlcNAc(b1-6)]Man(a1-6)]Man(b1-4)GlcNAc(b1-4)[Fuc(a1-6)]GlcNAc
# Procedure, shortened: as §1
# [10] = target: GlcNAc(b1-2)[GlcNAc(b1-6)]Man(a1-6)[GlcNAc(b1-2)Man(a1-3)]Man(b1-4)GlcNAc(b1-4)GlcNAc
# Procedure, shortened: as §1
# [11] = target: GlcNAc(b1-2)[GlcNAc(b1-6)]Man(a1-6)[GlcNAc(b1-2)Man(a1-3)]Man(b1-4)GlcNAc(b1-4)[Fuc(a1-6)]GlcNAc
# Procedure, shortened: as §1
# [12] = target: GlcNAc(b1-2)[GlcNAc(b1-6)]Man(a1-6)[GlcNAc(b1-4)][GlcNAc(b1-2)Man(a1-3)]Man(b1-4)GlcNAc(b1-4)GlcNAc
# Procedure, shortened: as §1
# GlcNAc(b1-3)Fuc = target: GlcNAc(b1-3)Fuc
# Procedure, shortened: as §1
# GlcNAc(b1-3)Gal = target: GlcNAc(b1-3)Gal
# Procedure, shortened: as §1
# [13] = target: GlcNAc(b1-3)Gal(b1-3)GalNAc
# Procedure, shortened: as §1
# GlcNAc(b1-3)Gal(b1-4)Glc = target: GlcNAc(b1-3)Gal(b1-4)Glc
# Procedure, shortened: as §1
# [14] = target: GlcNAc(b1-3)Gal(b1-4)GlcNAc
# Procedure, shortened: as §1
# [15] = target: GlcNAc(b1-3)Gal(b1-4)GlcNAc(b1-2)Man(a1-3)[GlcNAc(b1-3)Gal(b1-4)GlcNAc(b1-2)Man(a1-6)]Man(b1-4)GlcNAc(b1-4)GlcNAc
# Procedure, shortened: as §1
# [16] = target: GlcNAc(b1-3)Gal(b1-4)GlcNAc(b1-2)Man(a1-3)[GlcNAc(b1-3)Gal(b1-4)GlcNAc(b1-2)Man(a1-6)]Man(b1-4)GlcNAc(b1-4)[Fuc(a1-6)]GlcNAc
# Procedure, shortened: as §1
# [17] = target: GlcNAc(b1-3)Gal(b1-4)GlcNAc(b1-2)[GlcNAc(b1-3)Gal(b1-4)GlcNAc(b1-6)]Man(a1-6)[GlcNAc(b1-3)Gal(b1-4)GlcNAc(b1-2)Man(a1-3)]Man(b1-4)GlcNAc(b1-4)GlcNAc
# Procedure, shortened: as §1
# [18] = target: GlcNAc(b1-3)Gal(b1-4)GlcNAc(b1-3)Gal(b1-4)GlcNAc
# Procedure, shortened: as §1
# [19] = target: GlcNAc(b1-3)Gal(b1-4)GlcNAc(b1-3)Gal(b1-4)GlcNAc(b1-2)Man(a1-3)[GlcNAc(b1-3)Gal(b1-4)GlcNAc(b1-3)Gal(b1-4)GlcNAc(b1-2)Man(a1-6)]Man(b1-4)GlcNAc(b1-4)GlcNAc
# Procedure, shortened: as §1
# [20] = target: GlcNAc(b1-3)Gal(b1-4)GlcNAc(b1-3)Gal(b1-4)GlcNAc(b1-2)Man(a1-3)[GlcNAc(b1-3)Gal(b1-4)GlcNAc(b1-3)Gal(b1-4)GlcNAc(b1-2)Man(a1-6)]Man(b1-4)GlcNAc(b1-4)[Fuc(a1-6)]GlcNAc
# Procedure, shortened: as §1
# [21] = target: GlcNAc(b1-3)Gal(b1-4)GlcNAc(b1-3)Gal(b1-4)GlcNAc(b1-2)[GlcNAc(b1-3)Gal(b1-4)GlcNAc(b1-3)Gal(b1-4)GlcNAc(b1-6)]Man(a1-6)[GlcNAc(b1-3)Gal(b1-4)GlcNAc(b1-3)Gal(b1-4)GlcNAc(b1-2)Man(a1-3)]Man(b1-4)GlcNAc(b1-4)[Fuc(a1-6)]GlcNAc
# Procedure, shortened: as §1
# [22] = target: GlcNAc(b1-3)Gal(b1-4)GlcNAc(b1-3)Gal(b1-4)GlcNAc(b1-3)Gal(b1-4)GlcNAc(b1-2)Man(a1-3)[GlcNAc(b1-3)Gal(b1-4)GlcNAc(b1-3)Gal(b1-4)GlcNAc(b1-3)Gal(b1-4)GlcNAc(b1-2)Man(a1-6)]Man(b1-4)GlcNAc(b1-4)GlcNAc
# Procedure, shortened: as §1
# [23] = target: GlcNAc(b1-3)Gal(b1-4)GlcNAc(b1-3)Gal(b1-4)GlcNAc(b1-3)Gal(b1-4)GlcNAc(b1-2)Man(a1-3)[GlcNAc(b1-3)Gal(b1-4)GlcNAc(b1-3)Gal(b1-4)GlcNAc(b1-3)Gal(b1-4)GlcNAc(b1-2)Man(a1-6)]Man(b1-4)GlcNAc(b1-4)[Fuc(a1-6)]GlcNAc
# Procedure, shortened: as §1
# [24] = target: GlcNAc(b1-3)Gal(b1-4)GlcNAc(b1-3)Gal(b1-4)GlcNAc(b1-3)Gal(b1-4)GlcNAc(b1-2)[GlcNAc(b1-3)Gal(b1-4)GlcNAc(b1-3)Gal(b1-4)GlcNAc(b1-3)Gal(b1-4)GlcNAc(b1-6)]Man(a1-6)[GlcNAc(b1-3)Gal(b1-4)GlcNAc(b1-3)Gal(b1-4)GlcNAc(b1-3)Gal(b1-4)GlcNAc(b1-2)Man(a1-3)]Man(b1-4)GlcNAc(b1-4)[Fuc(a1-6)]GlcNAc
# Procedure, shortened: as §1
# [25] = target: GlcNAc(b1-3)Gal(b1-4)GlcNAc(b1-3)Gal(b1-4)GlcNAc(b1-3)Gal(b1-4)GlcNAc(b1-3)Gal(b1-4)GlcNAc(b1-2)Man(a1-3)[GlcNAc(b1-3)Gal(b1-4)GlcNAc(b1-3)Gal(b1-4)GlcNAc(b1-3)Gal(b1-4)GlcNAc(b1-3)Gal(b1-4)GlcNAc(b1-2)Man(a1-6)]Man(b1-4)GlcNAc(b1-4)GlcNAc
# Procedure, shortened: as §1
# [26] = target: GlcNAc(b1-3)Gal(b1-4)GlcNAc(b1-3)Gal(b1-4)GlcNAc(b1-3)Gal(b1-4)GlcNAc(b1-3)Gal(b1-4)GlcNAc(b1-2)Man(a1-3)[GlcNAc(b1-3)Gal(b1-4)GlcNAc(b1-3)Gal(b1-4)GlcNAc(b1-3)Gal(b1-4)GlcNAc(b1-3)Gal(b1-4)GlcNAc(b1-2)Man(a1-6)]Man(b1-4)GlcNAc(b1-4)[Fuc(a1-6)]GlcNAc
# Procedure, shortened: as §1
# [27] = target: GlcNAc(b1-3)Gal(b1-4)GlcNAc(b1-3)Gal(b1-4)GlcNAc(b1-3)Gal(b1-4)GlcNAc(b1-3)Gal(b1-4)GlcNAc(b1-2)[GlcNAc(b1-3)Gal(b1-4)GlcNAc(b1-3)Gal(b1-4)GlcNAc(b1-3)Gal(b1-4)GlcNAc(b1-3)Gal(b1-4)GlcNAc(b1-6)]Man(a1-6)[GlcNAc(b1-3)Gal(b1-4)GlcNAc(b1-3)Gal(b1-4)GlcNAc(b1-3)Gal(b1-4)GlcNAc(b1-3)Gal(b1-4)GlcNAc(b1-2)Man(a1-3)]Man(b1-4)GlcNAc(b1-4)[Fuc(a1-6)]GlcNAc
# Procedure, shortened: as §1
# [28] = target: GlcNAc(b1-3)Gal(b1-4)GlcNAc(b1-3)Gal(b1-4)GlcNAc(b1-3)GalNAc
# Procedure, shortened: as §1
# [29] = target: GlcNAc(b1-3)Gal(b1-4)GlcNAc(b1-3)GalNAc
# Procedure, shortened: as §1
# [30] = target: GlcNAc(b1-3)Gal(b1-4)GlcNAc(b1-3)[GlcNAc(b1-3)Gal(b1-4)GlcNAc(b1-3)]GalNAc
# Procedure, shortened: as §1
# [31] = target: GlcNAc(b1-3)Gal(b1-4)GlcNAc(b1-6)[Gal(b1-3)]GalNAc
# Procedure, shortened: as §1
# [32] = target: GlcNAc(b1-3)Gal(b1-4)GlcNAc(b1-6)[GlcNAc(b1-3)Gal(b1-3)]GalNAc
# Procedure, shortened: as §1
# [33] = target: GlcNAc(b1-3)Gal(b1-4)GlcNAc(b1-6)[GlcNAc(b1-3)]Gal(b1-4)GlcNAc
# Procedure, shortened: as §1
# GlcNAc(b1-3)GalNAc = target: GlcNAc(b1-3)GalNAc
# Procedure, shortened: as §1
# GlcNAc(b1-3)Man = target: GlcNAc(b1-3)Man
# Procedure, shortened: as §1
# [34] = target: GlcNAc(b1-3)[GlcNAc(b1-4)][GlcNAc(b1-6)]GlcNAc
# Procedure, shortened: as §1
# [35] = target: GlcNAc(b1-3)[GlcNAc(b1-6)]Gal(b1-4)GlcNAc
# Procedure, shortened: as §1
# [36] = target: GlcNAc(b1-3)[GlcNAc(b1-6)]GalNAc
# Procedure, shortened: as §1
# [37] = target: GlcNAc(b1-4)Gal(b1-4)GlcNAc
# Procedure, shortened: as §1
# GlcNAc(b1-4)GlcNAc = target: GlcNAc(b1-4)GlcNAc
# Procedure, shortened: as §1
# [38] = target: GlcNAc(b1-4)GlcNAc(b1-4)GlcNAc
# Procedure, shortened: as §1
# [39] = target: GlcNAc(b1-4)GlcNAc(b1-4)GlcNAc(b1-4)GlcNAc(b1-4)GlcNAc
# Procedure, shortened: as §1
binder,measurement,setting,value
B1,glycan array binding signal (z-score),[1],1.47
same,glycan array binding signal (z-score),[2],0.315
same,glycan array binding signal (z-score),[3],0.47
same,glycan array binding signal (z-score),[4],-0.125
same,glycan array binding signal (z-score),[5],4.2
same,glycan array binding signal (z-score),[6],0.579
same,glycan array binding signal (z-score),[7],0.322
same,glycan array binding signal (z-score),[8],-0.233
same,glycan array binding signal (z-score),[9],0.817
same,glycan array binding signal (z-score),[10],-0.153
same,glycan array binding signal (z-score),[11],2.23
same,glycan array binding signal (z-score),[12],-0.263
same,glycan array binding signal (z-score),GlcNAc(b1-3)Fuc,-0.28
same,glycan array binding signal (z-score),GlcNAc(b1-3)Gal,-0.163
same,glycan array binding signal (z-score),[13],0.444
same,glycan array binding signal (z-score),GlcNAc(b1-3)Gal(b1-4)Glc,1.28
same,glycan array binding signal (z-score),[14],3.17
same,glycan array binding signal (z-score),[15],-0.033
same,glycan array binding signal (z-score),[16],0.232
same,glycan array binding signal (z-score),[17],4.12
same,glycan array binding signal (z-score),[18],0.512
same,glycan array binding signal (z-score),[19],2.88
same,glycan array binding signal (z-score),[20],3.2
same,glycan array binding signal (z-score),[21],9.38
same,glycan array binding signal (z-score),[22],0.024
same,glycan array binding signal (z-score),[23],0.28
same,glycan array binding signal (z-score),[24],1.78
same,glycan array binding signal (z-score),[25],0.313
same,glycan array binding signal (z-score),[26],-0.005
same,glycan array binding signal (z-score),[27],0.653
same,glycan array binding signal (z-score),[28],-0.285
same,glycan array binding signal (z-score),[29],-0.276
same,glycan array binding signal (z-score),[30],-0.088
same,glycan array binding signal (z-score),[31],-0.29
same,glycan array binding signal (z-score),[32],-0.189
same,glycan array binding signal (z-score),[33],10.1
same,glycan array binding signal (z-score),GlcNAc(b1-3)GalNAc,1.68
same,glycan array binding signal (z-score),GlcNAc(b1-3)Man,-0.22
same,glycan array binding signal (z-score),[34],-0.185
same,glycan array binding signal (z-score),[35],6.18
same,glycan array binding signal (z-score),[36],2.02
same,glycan array binding signal (z-score),[37],-0.222
same,glycan array binding signal (z-score),GlcNAc(b1-4)GlcNAc,-0.189
same,glycan array binding signal (z-score),[38],1.79
same,glycan array binding signal (z-score),[39],-0.289
